Data taken from patent publication US10253086B2, “CD20 therapies, CD22 therapies, and combination therapies with a CD19 chimeric antigen receptor (CAR)-expressing cell” (Novartis AG, priority 2015, dated 2019).
Values belong to the molecule of their own block, whether it stands above or below them.

Assays:
[1] = system: Raji, SEM, K562-hCD22, Daudi, and Nalm6; assay: Primary T-cell tumor target killing assay; format: cell-based, human; conditions: CD22 expressing luciferase target cell lines
Excerpt: Primary T-cells activated and transduced as described above were mixed with target cell lines stably expressing luciferase at the ratios indicated (FIG. 20A-20F). […] Untransduced T-cells (UTD) lacked the ability to kill target cell lines.

[2] = target: recombinant human CD22-Fc (Homo sapiens, UniProt P20273); assay: Surface expression of CD22 CAR in primary human T-cells (Protein-L, rhCD22-Fc); format: cell-based; conditions: day 10, flow cytometry
Method: Primary human T-cells were activated with anti-CD3/antiCD28 stimulatory beads on day 0, followed by lentiviral transduction of specified CAR constructs on day 1. Cells were expanded in vitro until day, 10 at which point they were analyzed by flow cytometry for surface expression of CAR. Two different approaches were utilized to determine surface expression of CAR: Protein-L-biotin followed by streptavidin-PE, and recombinant human CD22-Fc followed by anti-Fc-alexafluor 488. […] CD22 CAR m971 served as a positive control for binding both Protein-L and hrCD22-Fc, and Isotype CAR with no specificity (anti-gH) served as a positive control for Protein-L. T cells expressing no CAR were used as a negative control.

cynomolgus CD123 = assay: Cross-reactivity of anti-CD123 clones with cynomolgus CD123; format: binding
Excerpt: Their activity was compared against mouse clones 1172 and 1176, comprising the VH and VL domains in a light-to-heavy orientation with a CD8 hinge domain, CD8 transmembrane domain, and 41BB-costimulatory domain. […] 1172 is not.

surface expression of CAR [2]: positive surface expression
B1: hCD22-30: human CD22 CAR (protein)
scFv: [about 100 residues not given here]EPASSSWYGYYYYMDVWGKGTLVTVSSGGGGSGGGGSGGGGSGGGGSDIQMTQSPSSLSASVGDRVTITCRASQSINTYLNWYQQKPGKPPKLLIYAASNLQSGVPSRFSGSGSGTHFTLTISSLQPDDFATYYCQQSYSSLLTFGGGTKLEIK
target cell killing [1]: dose-dependent target cell killing

B2: NVS 2: human anti-human CD123 clone expressing CAR123-2 (antibody, V domains shown)
VH: [about 100 residues not given here]DMNILATVPFDIWGQGTMVTVSS
VL: DIQMTQSPSSLSASVGDRVTITCRASQSISSYLNWYQQKPGKAPKLLIYAASSLQSGVPSRFSGSGSGTDFTLTVNSLQPEDFATYYCQQGDSVPLTFGGGTRLEIK
cross-reactivity against cynomolgus CD123 (cynomolgus CD123): cross-reactive against cynomolgus CD123
